Results on 170 sequences are retold here after publication PMC5836133.

Some of the results follow. At the low end of the ranking the order means little.

The experiment concerns T1, GST-NbGlk1(82-244).
T1 sequence: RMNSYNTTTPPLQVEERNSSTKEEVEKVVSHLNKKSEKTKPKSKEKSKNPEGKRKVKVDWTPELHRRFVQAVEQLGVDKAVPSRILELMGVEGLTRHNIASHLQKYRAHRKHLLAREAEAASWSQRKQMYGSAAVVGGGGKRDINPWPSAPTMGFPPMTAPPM
Nature of the experiment: protein-binding microarray.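 Further: rank-based score ranging −0.5 to +0.5 with E above 0.45 taken as significant binding.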 As to conditions: NbGlk1 is a Golden2-like transcription factor of Nicotiana benthamiana; high values mean tight binding; most listed sequences are background and not binding sites; double strand, one strand shown.
Sequence AAACTAGA returned a binding signal of 0.166 E-score. Turning to AGACAGAT, the binding signal was 0.222 E-score. With CAAAGAAC, the binding signal was determined as 0.0614 E-score.

The sequence ACCAACCT registered a binding signal of -0.0513 E-score. The sequence AAAGAGTA showed a binding signal of 0.0369 E-score.

In turn, ACCTTAGT yielded a binding signal of -0.068 E-score. As for AGCAGTTG, the binding signal was found to be 0.0451 E-score. In the case of CACTCCGG it was -0.209 E-score; in that of AACCCTTG, -0.159 E-score; in that of AGCGCTTA, -0.211 E-score. The same measure for AAGAAATG: -0.069 E-score; for ACGTAGGA: -0.0304 E-score; for AACTGGAT: 0.173 E-score. Consider AGTGCGGC, for which the binding signal is -0.259 E-score. ATAAGGTA gave a binding signal of 0.0501 E-score.

CAGATCCC showed a binding signal of 0.266 E-score. The sequence AAATGCCG came in with a binding signal of 0.0595 E-score.

AATGAACG: the binding signal is -0.111 E-score. The same measure for CACGACCG: -0.093 E-score; for AAGTTTGA: 0.129 E-score; for CACCGATC: 0.0752 E-score. In the case of ACACCATG it was -0.0506 E-score; in that of ATGTGATC, 0.226 E-score. For CACTCAAG, the binding signal came out at 0.0504 E-score.

As to ACCGTAAA, the binding signal is -0.0262 E-score. In turn, ACTCAGGA displayed a binding signal of -0.00097 E-score.

Regarding AAGCCGGA, the binding signal was -0.173 E-score. AACCCACT returned a binding signal of -0.276 E-score.

Turning to ACTCGCCT, the binding signal is -0.16 E-score. Take ACCGCGAC: the binding signal was -0.156 E-score. As to ACACGGCC, the binding signal is -0.186 E-score.

In the case of ACTTTAGC, the binding signal is -0.0567 E-score.

ACCCCCCT showed a binding signal of -0.324 E-score.

AAAACCAC showed a binding signal of -0.0315 E-score. Take AAAGATAT: the binding signal came to 0.342 E-score.

For AACCAACC, the binding signal is -0.103 E-score. In the case of ACCCTCCA it was -0.316 E-score. In the case of ACGACTTG, the binding signal is -0.144 E-score. In the case of AAACACTT it was 0.029 E-score. Sequence CACGATAG yielded a binding signal of 0.0221 E-score.

AATCTGAC returned a binding signal of 0.417 E-score. Take AGTCAGCG: the binding signal is -0.127 E-score. Sequence AATGAATT came in with a binding signal of 0.0979 E-score. Regarding ACGAACGG, the binding signal was -0.114 E-score. The same measure for CAATACAA: 0.00418 E-score; for ATTCCTGC: 0.176 E-score.

As to ATGATATC, the binding signal came to 0.422 E-score. In the case of AGCTAAGA, the binding signal is -0.0984 E-score. The sequence ATTGCTCC gave a binding signal of 0.109 E-score. In the case of ACGCTTTG it was -0.127 E-score.

On to ACATCCAG, for which the binding signal was found to be 0.139 E-score. AACAGGAA registered a binding signal of 0.207 E-score.

ACACACAA registered a binding signal of -0.0075 E-score.

Turning to ACTCAGTG, the binding signal is -0.0814 E-score. AGGGCGAG registered a binding signal of -0.155 E-score. AGACTGAT registered a binding signal of 0.0553 E-score. As for CAAGGACA, the binding signal was -0.14 E-score. For the sequence AAACGAAT, the binding signal came out at 0.162 E-score. Regarding AGGGCGCC, the binding signal was -0.26 E-score.

In turn, AACACCAG registered a binding signal of -0.269 E-score. CAACACCG returned a binding signal of -0.0516 E-score. For AGTCTGCC, the binding signal is -0.367 E-score. The same measure for AACAGAAG: 0.0291 E-score; for CAGAGCAG: -0.226 E-score; for AATGAGCT: -0.243 E-score. For AAGCCCGA, the binding signal is -0.215 E-score. On to AACGTGGC, for which the binding signal is -0.202 E-score.

In the case of AACCACGA, the binding signal was 0.0162 E-score.

In turn, AGCGCACA displayed a binding signal of -0.118 E-score. AGGAGGTC came in with a binding signal of -0.289 E-score. For ACCTGTTA, the binding signal was -0.0444 E-score. ATGAGTCC displayed a binding signal of -0.255 E-score.

As for ATTTTCTG, the binding signal was 0.324 E-score. In turn, AGGCCATG came in with a binding signal of -0.189 E-score. In turn, AGATATTA registered a binding signal of 0.379 E-score. As for AATGTTCC, the binding signal is -0.0591 E-score. The sequence ATCAGGGG came in with a binding signal of 0.111 E-score.

In turn, ACCTTCGA showed a binding signal of -0.204 E-score. AGACTTCG yielded a binding signal of -0.156 E-score. The sequence AACATGAT came in with a binding signal of 0.126 E-score.

For the sequence ATATTCTG, the binding signal is 0.342 E-score. Sequence AACATAAA had a binding signal of 0.0848 E-score.

The sequence ATATACTG had a binding signal of 0.253 E-score. On to AAGGCAAG, for which the binding signal is -0.153 E-score.

In turn, AAGTTAAG displayed a binding signal of -0.216 E-score. In the case of AATCATTA, the binding signal turned out to be 0.201 E-score. AACCTATT gave a binding signal of 0.0255 E-score.

In turn, ACGCTGTA had a binding signal of -0.149 E-score. In the case of AAGGCAGG, the binding signal was -0.181 E-score. ATTGTCCG: the binding signal worked out at 0.119 E-score.

Consider ATCTTCAA, for which the binding signal was found to be 0.303 E-score. The sequence ACTATTCT registered a binding signal of 0.0057 E-score. ATGAAACA: the binding signal worked out at 0.106 E-score. In turn, ATTCAGAC yielded a binding signal of 0.0229 E-score. Sequence ATTCGGGC gave a binding signal of 0.188 E-score. As for AGCTTTGG, the binding signal was -0.221 E-score. ATATTCAC registered a binding signal of 0.208 E-score. The same measure for CAGAGCCC: -0.266 E-score. In the case of ATACGTGC it was 0.2 E-score. Sequence ACCCGCGA registered a binding signal of -0.0675 E-score.

Turning to CACCCGCC, the binding signal was -0.173 E-score.

Regarding AGTGAACA, the binding signal was -0.0625 E-score. The same measure for AGCATAAG: -0.232 E-score; for AAAATGCT: -0.0406 E-score. For AGCACGGG, the binding signal is -0.141 E-score.

AATCGTAA returned a binding signal of 0.369 E-score. Consider CACCGACA, for which the binding signal was -0.124 E-score. The sequence ACCTCTCA displayed a binding signal of -0.229 E-score. In turn, ATTGGTTA yielded a binding signal of 0.0759 E-score. ATCCGATC: the binding signal turned out to be 0.286 E-score. Consider AGATACAT, for which the binding signal amounted to 0.119 E-score. The same measure for CACCAACC: -0.194 E-score; for CACCTATA: 0.0797 E-score; for AACACAGC: -0.0633 E-score. Consider AGAGGTCA, for which the binding signal is -0.309 E-score. The same measure for ACATAGCG: -0.00778 E-score; for ATCGAACG: 0.0812 E-score; for AAGAGTCC: -0.25 E-score.

Turning to AGGCTTCG, the binding signal is -0.245 E-score. For ATTACAAG, the binding signal was 0.219 E-score. In turn, AACTCGTG yielded a binding signal of -0.152 E-score. Consider AGTATGAT, for which the binding signal worked out at 0.162 E-score. The same measure for AGAAGACT: -0.172 E-score; for AGTGTCAT: -0.157 E-score; for ACCTAAGG: -0.11 E-score.

ACCGAAGC: the binding signal is -0.144 E-score. In the case of AAGACCTG it was -0.122 E-score. The same measure for ATTGGGTA: 0.0391 E-score; for AAGCAGCT: -0.25 E-score. For the sequence ATGAACAT, the binding signal was -0.0879 E-score. For the sequence AGAAGACG, the binding signal was -0.0835 E-score. ACAAATTC had a binding signal of 0.18 E-score. As to ACTGTTTC, the binding signal was -0.121 E-score. In the case of ATAGTAGC it was -0.0696 E-score; in that of ATTCCGAG, 0.275 E-score; in that of AATGGAGT, -0.016 E-score. ACTAGTGC showed a binding signal of -0.129 E-score.

CACTGGTC returned a binding signal of -0.278 E-score. ATCTGGTG showed a binding signal of 0.333 E-score. The sequence ACCTATGA showed a binding signal of -0.0891 E-score. In turn, AGCATGTA showed a binding signal of 0.0981 E-score. Take AGAACTTG: the binding signal was -0.0907 E-score. In turn, AAAGACAA showed a binding signal of 0.0545 E-score.

As to AACTTGTG, the binding signal is -0.191 E-score. Turning to AAATGTCG, the binding signal is -0.00369 E-score.

Sequence AGCTGTAA registered a binding signal of -0.0439 E-score. ACTCCCCC came in with a binding signal of -0.216 E-score. The same measure for AATAACCA: 0.0526 E-score; for AACGCATA: -0.0442 E-score; for AGATGTAG: 0.0326 E-score. Turning to ACCCCGCG, the binding signal was -0.188 E-score. The sequence AAGCGCTC yielded a binding signal of -0.0795 E-score. AATGAGGG displayed a binding signal of -0.0102 E-score. The sequence ACCATTTC displayed a binding signal of -0.0965 E-score. ATTGCTAA yielded a binding signal of 0.202 E-score.

ACACCCAG showed a binding signal of -0.139 E-score. Sequence AACGTTGG had a binding signal of -0.0439 E-score. For the sequence ATCAAGTG, the binding signal came out at 0.0355 E-score. As for ATACTATG, the binding signal came to 0.00304 E-score. The same measure for CAACACCA: -0.122 E-score.

On to ACTAGGAG, for which the binding signal was -0.143 E-score. Consider CAAAGAAG, for which the binding signal is -0.0409 E-score. The same measure for ATGGAGAC: -0.168 E-score; for AACCATGA: 0.0502 E-score. CAACCTCC showed a binding signal of -0.312 E-score. ACATACGT showed a binding signal of -0.0574 E-score. CACTACGA had a binding signal of -0.0405 E-score. In turn, ACACTAGG registered a binding signal of -0.0663 E-score.

As for ACGGGTAT, the binding signal is 0.00646 E-score. ACCTGGCT gave a binding signal of -0.283 E-score.
